Reference: PMC6919601, “Identification of Plasmodium dipeptidyl aminopeptidase allosteric inhibitors by high throughput screening” (PLoS ONE, 2019)
Out of some 110,000 compounds screened, about 230 (0.21%) showed an effect of 50% or more. This is one part of the list.

Target: DPAP1 (Plasmodium falciparum, UniProt Q8IIJ9)
Assay: primary screen, percent inhibition; read by cleavage of a fluorogenic dipeptide substrate; higher = more effect of the substance
Set-up: species or system P. falciparum D10 trophozoite lysates; single well
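Note: 30 min substrate incubation versus DMSO and 10 µM JCP410 controls.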

Chain of DPAP1 (Q8IIJ9 whole entry, looked up): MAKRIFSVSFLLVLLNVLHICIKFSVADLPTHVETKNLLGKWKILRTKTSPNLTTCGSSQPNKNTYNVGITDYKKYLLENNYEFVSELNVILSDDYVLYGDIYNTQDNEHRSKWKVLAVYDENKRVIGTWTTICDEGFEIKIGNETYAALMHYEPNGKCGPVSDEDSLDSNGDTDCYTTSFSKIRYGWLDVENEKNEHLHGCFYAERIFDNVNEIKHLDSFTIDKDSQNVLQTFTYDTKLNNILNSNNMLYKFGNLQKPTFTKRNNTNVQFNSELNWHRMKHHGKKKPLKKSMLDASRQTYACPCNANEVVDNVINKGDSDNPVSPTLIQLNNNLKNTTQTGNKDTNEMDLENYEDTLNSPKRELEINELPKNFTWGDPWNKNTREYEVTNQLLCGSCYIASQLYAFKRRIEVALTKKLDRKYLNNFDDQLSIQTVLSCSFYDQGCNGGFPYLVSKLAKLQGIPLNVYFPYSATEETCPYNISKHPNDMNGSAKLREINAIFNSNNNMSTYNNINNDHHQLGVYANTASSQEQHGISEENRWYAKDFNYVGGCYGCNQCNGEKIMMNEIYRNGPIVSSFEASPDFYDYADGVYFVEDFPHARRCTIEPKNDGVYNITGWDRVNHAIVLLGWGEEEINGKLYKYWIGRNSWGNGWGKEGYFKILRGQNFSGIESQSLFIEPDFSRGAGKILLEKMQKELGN

Structure (SMILES)	% Inhibition @ 10 uM [%]
c1ccc(-c2ncnn2-c2ccccc2)cc1	-4.75
Nc1c(C(=O)O)cc(O)c2c1C(=O)c1ccccc1C2=O	0.98
COc1cccc(/C=c2\sc3ncnn3c2=O)c1OC	0.0069
FC(F)(F)c1cc(-c2cccs2)n2ncc(-c3ccc(Cl)cc3)c2n1	0.0538
Cc1cc(O)nc2c1cnn2C(C)c1ccccc1 (centres unmarked)	2.89
CC(C)(C)c1ccc(-c2nc(NC(=O)CSc3nnnn3-c3ccccc3)ns2)cc1	-1.11
Cc1cccc(CCNc2nnc3c4ccccc4n(C)c3n2)c1	1.1
CC1(C)OC(=O)C(=Cc2ccc(N3CCCCC3)o2)C(=O)O1	0.035
Cc1cccc(CCNc2nc3ccccc3n3nnnc23)c1	-5.29
Cc1ccc(CNC(=O)C2CCN(c3nnc(C)c4c(C)n(-c5ccc(Cl)cc5)nc34)CC2)o1	3.58
Cc1cc(C)n(-c2c(-c3ccccc3)c(=O)n(C)c3ccccc23)n1	2.42
COCCCN1C2=C(C(=O)CC(C)(C)C2)C(c2ccccc2)C2=C1CC(C)(C)CC2=O	-1.95
CCC(C)NC(=O)NC1C(NC(=O)NC(C)CC)N(C)C(=O)N1C (centres unmarked)	3.15
Cc1cc(C)c(S(=O)(=O)N2CCN(c3nc4ccccc4nc3-n3nc(C)cc3C)CC2)c(C)c1	-0.602
COc1cc(NS(=O)(=O)c2ccc(NS(=O)(=O)c3ccccc3)cc2)nc(OC)n1	5.12
CCN(CC)CCNC(=O)c1cc([N+](=O)[O-])c(N(C)C)cc1OC	-1.29
Cc1cc(NC(=O)CNS(=O)(=O)c2ccc3nc(C)sc3c2)[nH]n1	-4.24
CCN(CC)CCNS(=O)(=O)c1ccc(-c2ccc(O)nn2)s1	2.96
O=C(NCCO)c1cc2ccccc2oc1=O	-1.59
C=CCn1c(SCC(C)C)nc2c1c(=O)n(C)c(=O)n2C	2.36
CSc1nc(-c2ccc(Cl)cc2)nn1S(=O)(=O)c1ccccc1	-8.9
Clc1ccc2nc(NCCN3CCOCC3)c3nncn3c2c1	4.33
O=C(CSCc1ccccc1Cl)NCCSc1ccccn1	-5
COc1ccc(N2C(=O)CC(NCCc3ccc(OC)c(OC)c3)C2=O)cc1 (centres unmarked)	-1.28
COc1cccc(OCCNC(=O)c2cc(C(F)(F)F)cc(C(F)(F)F)c2)c1	5.79

Structure (SMILES)	% Inhibition @ 10 uM [%]
CCOc1ccc(NC(=O)CC2(c3ccc(OC)cc3)C(=O)c3ccccc3C2=O)cc1	-3.58
Cc1cccc(-n2c(S)nnc2Cn2nc(C)c(Cl)c2C)c1	7.04
CCN(Cc1ccc(OC)cc1)S(=O)(=O)c1nnc(NC(=O)/C=C/c2ccccc2)s1	-5.9
O=C(Nc1noc2ccccc12)c1ccc(Cl)c(Cl)c1	3.77
Cc1cccn2cc(-c3ccc(NC(=O)CC(C)C)cc3)nc12	4.81
COc1ccc2c(c1)C(C)=CC(C)(C)N2S(=O)(=O)c1ccc(NC(C)=O)cc1	14.9
CCOc1ccccc1/C=C1\N=C(c2ccc(OC)cc2Cl)OC1=O	3.1
c1ccc(-c2nc3sc4c(ncn5cnnc45)c3c3c2CCC3)cc1	0.883
COc1ccc(C2=NOC(C(=O)N3CCc4ccccc4C3)C2)cc1 (centres unmarked)	6.22
c1ccc(-n2nnnc2COc2cccc3ccccc23)cc1	-4.64
CCC1C(=O)NCCN1C(=O)c1ccc(Br)o1 (centres unmarked)	2.41
O=S(=O)(Cc1ccccc1)N1CCOCC1	-2.35
CCc1nc2sc3c(N4CCCC4)ncnc3c2c2c1CCCC2	3.27
O=C(NCCc1ccccc1)c1cccc(F)c1	-2.03
CN1C(=O)N(C)C(=O)C(Cc2ccccn2)(Cc2ccccn2)C1=O	-6.25
Cc1nc2c(C(=O)NCCC3=CCCCC3)cnn2c(C)c1Cc1ccccc1Cl	-4.29
CC(=O)Nc1ccc(C(=O)N(C)C(C(=O)Nc2ccccc2)c2ccccn2)cc1 (centres unmarked)	-11.2
COc1ccccc1-c1cc(C(=O)Nc2c(C)nn(Cc3ccccc3C)c2C)no1	12.8
O=C(CCCOc1ccc(Cl)cc1Cl)N1CCN(c2ccc(F)cc2)CC1	0.135
COc1ccc(/C=N/c2nnc(-c3ccccc3)c(-c3ccccc3)n2)c(C(=O)O)c1OC	2.18
CC1=NC2=C(C(=O)CCC2)C(c2cccc(Cl)c2)/C1=C(\O)OC(C)C (centres unmarked)	-1.15
CCN1/C(=C2/SC(=S)N(C3CCCCC3)C2=O)C=Cc2cc(C)ccc21	-0.0369
O=C(Cn1nc(C(F)(F)F)cc1C1CC1)Nc1cccc(Cl)c1	-3.71
CCCCc1[nH]nc2c1C(c1cc(OC)c(OC)cc1OC)C(C#N)=C(N)O2 (centres unmarked)	0.722
O=C(CCCn1c2ccccc2c2cnnc(O)c21)NCCCN1CCCC1=O	-0.281
